About 4,700 (1.2%) of roughly 390,000 compounds were called active. This list was built around the results that the source calls inconclusive (neither active nor inactive); the mix of calls is not that of the screen. Calls follow the shape of the dose curve; as a rule, active = well fitted inhibition curve with a large enough effect; inconclusive = small, poorly fitted or top-dose-only effect, or another doubt; inactive = no such curve, though single readings can be large or run the other way. Potencies of inconclusive entries are doubtful fits and often do not repeat.
These compounds were tested against DNA polymerase eta (Homo sapiens) (UniProt Q9Y253) (assay: qHTS for Inhibitors of Polymerase Eta). Details: recombinant Pol eta, fluorescent DNA replication assay; series mostly up to 114 µM.
Sequence of UniProt Q9Y253 (Q9Y253 whole entry, looked up): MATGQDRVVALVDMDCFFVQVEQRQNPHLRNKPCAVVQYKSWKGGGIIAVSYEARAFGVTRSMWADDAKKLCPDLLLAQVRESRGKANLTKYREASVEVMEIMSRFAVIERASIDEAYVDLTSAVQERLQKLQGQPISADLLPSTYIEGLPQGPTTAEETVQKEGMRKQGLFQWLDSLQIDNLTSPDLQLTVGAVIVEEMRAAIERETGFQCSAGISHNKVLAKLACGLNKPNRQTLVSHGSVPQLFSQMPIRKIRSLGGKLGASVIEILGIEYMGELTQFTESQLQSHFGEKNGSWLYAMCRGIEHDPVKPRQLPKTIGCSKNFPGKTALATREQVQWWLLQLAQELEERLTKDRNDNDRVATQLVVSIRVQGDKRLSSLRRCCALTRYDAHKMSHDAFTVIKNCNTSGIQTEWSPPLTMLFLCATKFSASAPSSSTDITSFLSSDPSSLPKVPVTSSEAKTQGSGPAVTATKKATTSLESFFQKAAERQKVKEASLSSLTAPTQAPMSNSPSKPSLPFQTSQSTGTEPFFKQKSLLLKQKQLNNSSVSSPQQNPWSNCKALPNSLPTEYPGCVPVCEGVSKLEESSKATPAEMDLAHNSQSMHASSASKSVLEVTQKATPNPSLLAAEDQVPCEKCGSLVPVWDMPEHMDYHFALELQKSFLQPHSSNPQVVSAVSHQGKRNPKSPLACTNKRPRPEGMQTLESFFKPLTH
Outline: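 Fluorescent replication assay: 50 nM final substrate added after a 15 min room-temperature compound preincubation with 10 nM enzyme. Signal taken at 0 min and again at 10 min.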
Potency is read from the fitted curve at half-maximal effect; tags tell the direction and shape of the fitted curve.

SMILES | Potency
Nc1cc(C(=O)O)c(Oc2ccc(Cl)cc2Cl)cc1C(=O)O | inconclusive: 14.1 µM [inhibitor, full curve, poor fit]
COc1ccc(NC(=O)C2=C(C)Nc3ncnn3C2c2sccc2C)cc1 (stereo unspecified) | inactive
C=CS(=O)c1sc(Cl)c(N2CCOCC2)c1[N+](=O)[O-] (stereo unspecified) | inconclusive: 35.5 µM [inhibitor, partial curve, poor fit]
O=C(CC1C(=O)OCCN1Cc1ccccc1)Nc1cccc(Cl)c1 (stereo unspecified) | inactive
OCCCn1c(CCCNc2nc(-c3cccc(Br)c3)cs2)nc2cc(Cl)c(N3CCCCC3)cc21 | inconclusive: 79.4 µM [inhibitor, partial curve, poor fit]
CCc1cccc(NC(=O)CCCN2C(=O)C(c3ccccc3)Oc3cccnc32)c1 (stereo unspecified) | inconclusive: 79.4 µM [inhibitor, partial curve, poor fit]
CCC(C)C(=O)Nc1nnc(SCC(=O)NC2CCCC2)s1 (stereo unspecified) | inconclusive: 10 µM [inhibitor, partial curve, poor fit]
N#CC1=C(N)S[C@H](C(=O)C23CC4CC(CC(C4)C2)C3)[C@H]1c1ccncc1 | inconclusive: 70.8 µM [inhibitor, partial curve, poor fit]
NC(=O)c1ccsc1NC(=O)c1ccc([N+](=O)[O-])o1 | active: 44.7 µM
COC(=O)c1cnn(-c2ccc(F)cc2F)c1/C=N/NC(=S)NC(C)(C)C | inconclusive: 31.6 µM [inhibitor, partial curve, poor fit]
COc1ccc(N(C)S(=O)(=O)c2cccc(C(=O)Nc3nc(C)cs3)c2)cc1 | inconclusive: 89.1 µM [inhibitor, partial curve, poor fit]
O=C(O)c1ccc(COc2ccc3c4c(c(=O)oc3c2)CCC4)o1 | active: 7.94 µM
O=C(/C=C/c1ccco1)Nc1ccc(Oc2ccccc2)cc1 | inconclusive: 25.1 µM [inhibitor, single point]
O=c1c2ccccc2sn1-c1cc(S(=O)(=O)N2CCOCC2)ccc1N1CCCC1 | inactive
CC(C)Cn1c(N)c(C(=O)NCC2CCCO2)c2nc3ccccc3nc21 (stereo unspecified) | inconclusive: 44.7 µM [inhibitor, partial curve, poor fit]
CCOC(=O)c1c(C)[nH]c(C)c1S(=O)(=O)N1CCC(C(=O)NCc2ccc(F)cc2)CC1 | inactive
O=C(/C=C/c1ccc(F)cc1)NCc1ccco1 | inconclusive: 25.1 µM [inhibitor, partial curve, poor fit]
COc1cccc(/C=C2\Oc3cc(OCC(=O)N4CCC[C@H]4C(=O)O)ccc3C2=O)c1 | active: 44.7 µM
O=C(Nc1ccc([N+](=O)[O-])c(NC(=O)C2CCCO2)c1)C1CCCO1 (stereo unspecified) | inconclusive: 28.2 µM [inhibitor, single point]
CCOc1cc(C(=O)O)ccc1OCCOc1ccccc1 | inconclusive: 50.1 µM [inhibitor, partial curve, poor fit]
CCCc1ccc(S(=O)(=O)N2CCN(C(C)C(=O)NC3CCCC3)CC2)cc1 (stereo unspecified) | inconclusive: 22.4 µM [inhibitor, single point]
Cc1ccc(C)c(NC(=O)Cn2cnc3c(oc4ccccc43)c2=O)c1 | inconclusive: 89.1 µM [inhibitor, single point]

SMILES | Potency
Cc1cc(C)c(-c2cc(C(=O)Nc3c(C)n(C)n(-c4ccccc4)c3=O)[nH]n2)c(O)c1 | inconclusive: 10 µM [inhibitor, full curve, poor fit]
O=C1C(=Cc2cccc(O)c2O)SC(=S)N1CCCN1CCOCC1 | active: 20 µM
CCOc1cc(/C=C2/SC(=O)N(CC(=O)N3CCc4ccccc4C3)C2=O)ccc1OCC(=O)O | inconclusive: 50.1 µM [inhibitor, partial curve, poor fit]
CCc1cc(=O)oc2c3c(cc(OCC(=O)NCc4ccncc4)c12)OC(C)(C)CC3 | inconclusive: 100 µM [inhibitor, single point]
CCOc1cc(/C=N/n2nnnc2N)ccc1OCc1c(C)no[n+]1[O-] | inconclusive: 39.8 µM [inhibitor, single point]
CCC(=O)Nc1ccccc1-c1nc2ccccc2n(Cc2cccc(Br)c2)c1=O | inactive
Cc1cccc(NC(=O)CN2C(=O)N/C(=C/c3cc(C)n(-c4ccncc4)c3C)C2=O)c1 | inconclusive: 11.2 µM [inhibitor, partial curve]
CCN(c1ccccc1)S(=O)(=O)c1ccc(Cl)c(NC(=O)CN(C)Cc2cccc(F)c2)c1 | inactive
O=C(O)c1ccc2c(c1)C(=O)N(N1C(=O)c3ccccc3C1=O)C2=O | inactive
Cc1ccc(-c2nc(N)sc2-c2ccc(C)cc2)cc1 | inconclusive: 89.1 µM [inhibitor, partial curve, poor fit]
C#CCN(C[C@H]1[C@H](OC(=O)Nc2c(C)noc2C)[C@H](OC(=O)Nc2c(C)noc2C)C[C@H]2C(=O)N(c3ccccc3)C(=O)[C@@H]12)S(=O)(=O)c1ccc(C)cc1 | inactive
CC1CC(C)CN(C(=O)COC(=O)c2ccc([N+](=O)[O-])o2)C1 (stereo unspecified) | active: 89.1 µM
CCc1nnc(NC(=O)CSc2ccc(-c3nc4ccc(C)cc4[nH]3)cn2)s1 | inconclusive: 35.5 µM [inhibitor, partial curve, poor fit]
NC(=S)n1[nH]c(-c2ccc([N+](=O)[O-])cc2)c(N=Nc2ccc(O)cc2)c1=O | inconclusive: 3.16 µM [inhibitor, full curve, poor fit]
O=c1c(Cc2ccccc2)c(O)ccn1Cc1ccc2c(c1)OCO2 | inconclusive: 79.4 µM [inhibitor, partial curve, poor fit]
O=C(O)c1cccc(-n2cccc2/C=C2/NC(=O)N(c3ccc(Cl)cc3)C2=O)c1 | active: 0.708 µM
O=C(NCCCN1CCOCC1)c1sc2cc([N+](=O)[O-])ccc2c1Cl | inactive
CCCCNC(=O)Cn1c(=O)cc(C)c2c(C)nn(-c3cccc(Cl)c3C)c21 | inactive
C=CCN1C(=O)/C(=C2/Sc3ccccc3N2CC)SC1=S | inactive
Cc1ccc(Nc2nc(-c3sc(N)nc3C)cs2)cc1 | inactive
CCOc1cc(/C=C2\CN(C)C/C(=C\c3ccc(O)c(OCC)c3)C2=O)ccc1O | active: 44.7 µM
O=C(CCN1C(=O)S/C(=C\c2ccc(Cl)cc2)C1=O)Nc1ccc(C(=O)O)cc1 | inactive

SMILES | Potency
COC(=O)c1c(C)oc2ccc(N(C(=O)Oc3ccccc3)S(=O)(=O)c3ccc(Cl)c([N+](=O)[O-])c3)cc12 | inconclusive: 31.6 µM [inhibitor, partial curve, poor fit]
Cc1ccc(OCCOc2ccc(S(=O)(=O)N3CCCC3)cc2C(N)=O)cc1 | inactive
CC(C)c1ccc(NC(=O)c2cnn(-c3ccccc3)c2NC(=O)c2ccco2)cc1 | inconclusive: 31.6 µM [inhibitor, partial curve, poor fit]
C=CCn1c(Cc2cccs2)nnc1SCC(=O)NCc1ccco1 | inconclusive: 14.1 µM [inhibitor, partial curve, poor fit]
Cc1cc(/C=C2\SC(=S)N(Cc3ccco3)C2=O)c(C)n1-c1ccccc1 | inconclusive: 7.08 µM [inhibitor, partial curve]
C/C(=N/NC(=O)c1cc(-c2cccc([N+](=O)[O-])c2)n[nH]1)c1cccc(O)c1 | inactive
Cc1ccc(NC(=O)COc2coc(CN3c4ccccc4CC3C)cc2=O)c(C)c1 (stereo unspecified) | inconclusive: 28.2 µM [inhibitor, single point]
CCOc1ccc(S(=O)(=O)N(C)c2ccc(OCC(=O)Nc3ccc4[nH]c(=O)[nH]c4c3)cc2)cc1 | inconclusive: 28.2 µM [inhibitor, partial curve, poor fit]
O=C(CSc1nc(-c2ccco2)nc2cc(=O)[nH]n12)Nc1ccc(F)cc1 | inactive
Cc1noc(-c2ccc(N3CCCCC3C)c([N+](=O)[O-])c2)n1 (stereo unspecified) | inactive
CN(C)C(CNC(=O)c1ccc2nccnc2c1)c1ccco1 (stereo unspecified) | inconclusive: 17.8 µM [inhibitor, full curve]
COCCNc1nc(-c2cc(-c3ccc(Cl)cc3)on2)cc(C(C)C)n1 | inconclusive: 100 µM [inhibitor, partial curve, poor fit]
COc1cc(C(=O)Nc2sc3c(c2C#N)CCCC3)c(Br)c(OC)c1OC | inactive
S=c1[nH]nc(COc2ccc3ccccc3c2)o1 | inactive
Cc1ccc(-n2cccc2/C=C2/C(=N)N3C(=NC2=O)SN=C3S(C)(=O)=O)cc1 | active: 31.6 µM
CCN(CC)c1ccc(C(=O)OCc2c(C)noc2C)cc1 | inconclusive: 89.1 µM [inhibitor, partial curve, poor fit]
O=C(O)c1cccc(N2C(=O)C=CC2=O)c1 | active: 20 µM
O=C(NCCCN1CCOCC1)c1ccc2nc(Cc3ccccc3F)oc2c1 | inconclusive: 35.5 µM [inhibitor, partial curve, poor fit]
O=C(Oc1cc(=O)oc2c1c(=O)n1c3c(cccc23)CC1)c1ccc(F)cc1 | inactive
CN(CC(=O)NC(=O)NCc1ccco1)Cc1nc2ccccc2c(=O)[nH]1 | inconclusive: 56.2 µM [inhibitor, partial curve, poor fit]
CS(=O)(=O)c1ncc(N(Cc2ccco2)Cc2cccs2)c(C(=O)Nc2ccccc2F)n1 | inconclusive: 79.4 µM [inhibitor, partial curve, poor fit]
O=c1c2ccccc2oc2ccc(NCCCN3CCOCC3)cc12 | inconclusive: 50.1 µM [inhibitor, partial curve, poor fit]
